Consider 36 compounds from the supplement of paper PMC9588766.

Counter-ions that a name gives are not always drawn. The full ranking holds about 1,900 compounds; the median of “cell viability of compound + 1 nM pemigatinib relative to pemigatinib-only (DMSO) wells” is about 0.95, and the lowest 2% start at about 0.22. The list shows a part of the results.

This assay relates to PDC-DUC18828. In words: cell viability of compound + 1 nM pemigatinib relative to pemigatinib-only (DMSO) wells (fraction); PDC-DUC18828 is a patient-derived cholangiocarcinoma cell line; higher = less growth inhibition. Particulars: first compound 1 µM; pemigatinib concentration 1 nM; 72 h. As to the method:
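Selleck Bioactive library screen in the patient-derived FGFR2 fusion-positive ICC cell line PDC-DUC18828 (500 cells/well). Each compound was tested at 1 uM with 1 nM pemigatinib, in triplicate, for 72 h. Viability was read by CellTiter-Glo and normalised to plate DMSO controls. Value is the paper's averaged normalised viability.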
Take `Cc1ccc(-c2c(-c3nn(C)c4ncnc(N5CC[C@H](N6CCCCC6)C5)c34)cnn2C)cc1` + CCN1C(=O)N(c2c(F)c(OC)cc(OC)c2F)Cc2cnc3[nH]c(CN4CCOCC4)cc3c21 [pemigatinib]: the cell viability came out at 0.866. For the compound `O=C1OC(CN2CCOCC2)CN1/N=C/c1ccc([N+](=O)[O-])o1` (stereo unspecified) [Furaltadone HCl] + CCN1C(=O)N(c2c(F)c(OC)cc(OC)c2F)Cc2cnc3[nH]c(CN4CCOCC4)cc3c21 [pemigatinib], the cell viability is 1.09. In the case of `C[C@H](CCC(=O)NCCS(=O)(=O)O)[C@H]1CC[C@H]2[C@@H]3[C@@H](O)C[C@@H]4C[C@H](O)CC[C@]4(C)[C@H]3CC[C@]12C` [Sodium Tauroursodeoxycholate (TUDC)] + CCN1C(=O)N(c2c(F)c(OC)cc(OC)c2F)Cc2cnc3[nH]c(CN4CCOCC4)cc3c21 [pemigatinib] it was 0.951. To `c1cn2cc(-c3ccc4cn[nH]c4c3)nc(Nc3ccc(N4CCOCC4)cc3)c2n1` + CCN1C(=O)N(c2c(F)c(OC)cc(OC)c2F)Cc2cnc3[nH]c(CN4CCOCC4)cc3c21 [pemigatinib] belongs 0.78; to `O=C1CCC(N2C(=O)c3ccccc3C2=O)C(=O)N1` (stereo unspecified) [Thalidomide] + CCN1C(=O)N(c2c(F)c(OC)cc(OC)c2F)Cc2cnc3[nH]c(CN4CCOCC4)cc3c21 [pemigatinib], 1.02. On to `CC1(C)S[C@@H]2[C@H](NC(=O)Cc3ccccc3)C(=O)N2[C@H]1C(=O)O` [Penicillin G Sodium] + CCN1C(=O)N(c2c(F)c(OC)cc(OC)c2F)Cc2cnc3[nH]c(CN4CCOCC4)cc3c21 [pemigatinib], for which the cell viability was found to be 0.921.

As for `CCCCc1nc(Cl)c(CO)n1Cc1ccc(-c2ccccc2-c2nnn[nH]2)cc1` [Losartan Potassium (DuP 753)] + CCN1C(=O)N(c2c(F)c(OC)cc(OC)c2F)Cc2cnc3[nH]c(CN4CCOCC4)cc3c21 [pemigatinib], the cell viability was 1.01. For `O=C(Nc1cccc2cccnc12)c1ccc(N2C(=O)[C@@H]3[C@H](C2=O)[C@@H]2C=C[C@H]3C2)cc1` [IWR-1-endo] + CCN1C(=O)N(c2c(F)c(OC)cc(OC)c2F)Cc2cnc3[nH]c(CN4CCOCC4)cc3c21 [pemigatinib], the cell viability was 0.713. To `C=CCn1c(=O)c2cnc(Nc3ccc(N4CCN(C)CC4)cc3)nc2n1-c1cccc(C(C)(C)O)n1` + CCN1C(=O)N(c2c(F)c(OC)cc(OC)c2F)Cc2cnc3[nH]c(CN4CCOCC4)cc3c21 [pemigatinib] belongs 0.359; to `Clc1ccc(C(Cn2ccnc2)OCc2csc3c(Cl)cccc23)c(Cl)c1` (stereo unspecified) [Sertaconazole nitrate] + CCN1C(=O)N(c2c(F)c(OC)cc(OC)c2F)Cc2cnc3[nH]c(CN4CCOCC4)cc3c21 [pemigatinib], 0.798; to `CN1CCC(COc2cnc(-c3cccc(Cn4nc(-c5cccc(C#N)c5)ccc4=O)c3)nc2)CC1` + CCN1C(=O)N(c2c(F)c(OC)cc(OC)c2F)Cc2cnc3[nH]c(CN4CCOCC4)cc3c21 [pemigatinib], 1.

`COc1cc(CCC(C)=O)ccc1O` [Vanillylacetone] + CCN1C(=O)N(c2c(F)c(OC)cc(OC)c2F)Cc2cnc3[nH]c(CN4CCOCC4)cc3c21 [pemigatinib]: the cell viability worked out at 0.921. In the case of `O=NN(CCCl)C(=O)NC1CCCCC1` [Lomustine] + CCN1C(=O)N(c2c(F)c(OC)cc(OC)c2F)Cc2cnc3[nH]c(CN4CCOCC4)cc3c21 [pemigatinib] it was 0.922. As to `COc1cnc(NS(=O)(=O)c2ccc(N)cc2)nc1` [Sulfameter] + CCN1C(=O)N(c2c(F)c(OC)cc(OC)c2F)Cc2cnc3[nH]c(CN4CCOCC4)cc3c21 [pemigatinib], the cell viability was 1.04. In the case of `CCCCCCCCc1ccc(CCC(N)(CO)CO)cc1` [Fingolimod (FTY720) HCl] + CCN1C(=O)N(c2c(F)c(OC)cc(OC)c2F)Cc2cnc3[nH]c(CN4CCOCC4)cc3c21 [pemigatinib] it was 0.908; in that of `C[C@]12CC[C@@H]3c4ccc(O)cc4CC[C@H]3[C@@H]1CCC2=O` [Estrone] + CCN1C(=O)N(c2c(F)c(OC)cc(OC)c2F)Cc2cnc3[nH]c(CN4CCOCC4)cc3c21 [pemigatinib], 1.01. Consider `COc1cc(C(=O)NC2CCCNC2)cc(OC)c1OC` (stereo unspecified) [Troxipide] + CCN1C(=O)N(c2c(F)c(OC)cc(OC)c2F)Cc2cnc3[nH]c(CN4CCOCC4)cc3c21 [pemigatinib], for which the cell viability turned out to be 1.05. To `CN1CC2c3ccccc3Oc3ccc(Cl)cc3C2C1` (stereo unspecified) [Asenapine] + CCN1C(=O)N(c2c(F)c(OC)cc(OC)c2F)Cc2cnc3[nH]c(CN4CCOCC4)cc3c21 [pemigatinib] belongs 0.984. To `CCCCNc1ncc2c(-c3ccc(CN4CCN(C)CC4)cc3)cn([C@H]3CC[C@H](O)CC3)c2n1` + CCN1C(=O)N(c2c(F)c(OC)cc(OC)c2F)Cc2cnc3[nH]c(CN4CCOCC4)cc3c21 [pemigatinib] belongs 0.587; to `COC1=C2C[C@@H](C)C[C@H](OC)[C@H](O)[C@@H](C)/C=C(\C)[C@H](OC(N)=O)[C@@H](OC)/C=C\C=C(/C)C(=O)NC(=CC1=O)C2=O` [Geldanamycin] + CCN1C(=O)N(c2c(F)c(OC)cc(OC)c2F)Cc2cnc3[nH]c(CN4CCOCC4)cc3c21 [pemigatinib], 0.299; to `CNC(=O)Nc1ccc(-c2nc(N3CC4CCC(C3)O4)c3cnn(C4CCC5(CC4)OCCO5)c3n2)cc1` + CCN1C(=O)N(c2c(F)c(OC)cc(OC)c2F)Cc2cnc3[nH]c(CN4CCOCC4)cc3c21 [pemigatinib], 0.232.

As to `CCC(CC)CC1(C(=O)Nc2ccccc2SC(=O)C(C)C)CCCCC1` + CCN1C(=O)N(c2c(F)c(OC)cc(OC)c2F)Cc2cnc3[nH]c(CN4CCOCC4)cc3c21 [pemigatinib], the cell viability came to 0.972.

Take `Cn1cc(-c2ccc3nnc(C(F)(F)c4ccc5ncccc5c4)n3n2)cn1` + CCN1C(=O)N(c2c(F)c(OC)cc(OC)c2F)Cc2cnc3[nH]c(CN4CCOCC4)cc3c21 [pemigatinib]: the cell viability turned out to be 1.01.

For the compound `c1ccc2[nH]c(-c3cscn3)nc2c1` [Thiabendazole] + CCN1C(=O)N(c2c(F)c(OC)cc(OC)c2F)Cc2cnc3[nH]c(CN4CCOCC4)cc3c21 [pemigatinib], the cell viability amounted to 0.973. In the case of `CCCCCCCN(CC)CCCC(O)c1ccc(NS(C)(=O)=O)cc1` (stereo unspecified) [Ibutilide Fumarate] + CCN1C(=O)N(c2c(F)c(OC)cc(OC)c2F)Cc2cnc3[nH]c(CN4CCOCC4)cc3c21 [pemigatinib] it was 1.03. In the case of `Cc1nnc(C(C)C)n1C1C[C@H]2CC[C@@H](C1)N2CC[C@H](NC(=O)C1CCC(F)(F)CC1)c1ccccc1` (stereo in doubt) [Maraviroc] + CCN1C(=O)N(c2c(F)c(OC)cc(OC)c2F)Cc2cnc3[nH]c(CN4CCOCC4)cc3c21 [pemigatinib] it was 0.999; in that of `Cn1c(=O)cc(N2CCC[C@@H](N)C2)n(Cc2ccccc2C#N)c1=O` [Alogliptin] + CCN1C(=O)N(c2c(F)c(OC)cc(OC)c2F)Cc2cnc3[nH]c(CN4CCOCC4)cc3c21 [pemigatinib], 1.01; in that of `CC1(C)S[C@@H]2[C@H](NC(=O)[C@H](NC(=O)N3CCN(S(C)(=O)=O)C3=O)c3ccccc3)C(=O)N2[C@H]1C(=O)O` [Mezlocillin Sodium] + CCN1C(=O)N(c2c(F)c(OC)cc(OC)c2F)Cc2cnc3[nH]c(CN4CCOCC4)cc3c21 [pemigatinib], 0.999. `COc1cc(Nc2ncc(F)c(Nc3ccc4c(n3)N(COP(=O)(O)O)C(=O)C(C)(C)O4)n2)cc(OC)c1OC` [Fostamatinib (R788)] + CCN1C(=O)N(c2c(F)c(OC)cc(OC)c2F)Cc2cnc3[nH]c(CN4CCOCC4)cc3c21 [pemigatinib]: the cell viability was 0.794.

With `COc1ccc(-c2cc(=O)c3c(O)cc(O[C@@H]4O[C@H](CO[C@@H]5O[C@@H](C)[C@H](O)[C@@H](O)[C@H]5O)[C@@H](O)[C@H](O)[C@H]4O)cc3o2)cc1O` [Diosmin] + CCN1C(=O)N(c2c(F)c(OC)cc(OC)c2F)Cc2cnc3[nH]c(CN4CCOCC4)cc3c21 [pemigatinib], the cell viability was found to be 0.966. Regarding `O=S(=O)(O)CCS` [Mesna] + CCN1C(=O)N(c2c(F)c(OC)cc(OC)c2F)Cc2cnc3[nH]c(CN4CCOCC4)cc3c21 [pemigatinib], the cell viability worked out at 0.986. In the case of `CCCS(=O)(=O)Nc1ccc(F)c(C(=O)c2c[nH]c3ncc(-c4ccc(Cl)cc4)cc23)c1F` [Vemurafenib (PLX4032, RG7204)] + CCN1C(=O)N(c2c(F)c(OC)cc(OC)c2F)Cc2cnc3[nH]c(CN4CCOCC4)cc3c21 [pemigatinib] it was 0.955. In the case of `Cc1cccc(-c2[nH]c(CNc3ccccc3F)nc2-c2ccc3ncnn3c2)n1` + CCN1C(=O)N(c2c(F)c(OC)cc(OC)c2F)Cc2cnc3[nH]c(CN4CCOCC4)cc3c21 [pemigatinib] it was 0.947; in that of `O=C(Nc1c(Cl)cncc1Cl)c1ccc(OC(F)F)c(OCC2CC2)c1` [Roflumilast] + CCN1C(=O)N(c2c(F)c(OC)cc(OC)c2F)Cc2cnc3[nH]c(CN4CCOCC4)cc3c21 [pemigatinib], 0.972; in that of `CCOC(=O)OC(C)OC1=C(C(=O)Nc2ccccn2)N(C)S(=O)(=O)c2ccccc21` (stereo unspecified) [Ampiroxicam] + CCN1C(=O)N(c2c(F)c(OC)cc(OC)c2F)Cc2cnc3[nH]c(CN4CCOCC4)cc3c21 [pemigatinib], 0.914. In the case of `C[C@@H]1O[C@@H](O[C@H]2[C@H](Oc3cc(O)c(C(=O)CCc4ccc(O)cc4)c(O)c3)O[C@H](CO)[C@@H](O)[C@@H]2O)[C@H](O)[C@H](O)[C@H]1O` [Naringin Dihydrochalcone] + CCN1C(=O)N(c2c(F)c(OC)cc(OC)c2F)Cc2cnc3[nH]c(CN4CCOCC4)cc3c21 [pemigatinib] it was 0.925.
